The text below walks through data of publication doi:10.1101/2024.11.25.624572 (bioRxiv, 2024).

For experiment [1], the target named is T1, α-Syn fibrils (from N-terminally acetylated human α-Syn) (human, UniProt P37840, N-terminal acetylation). Description: co-sedimentation.
Experiment [2] deals with T1, α-Syn fibrils (from N-terminally …). The experiment in a line: air AFM imaging.

B1: PDZ domain of human HtrA1 (domain or fragment)
chain: not shown
For the molecule B1, the binding result in experiment [1] is reported as “binds”.

B2: HtrA1* (catalytically inactive human HtrA1 without the N-terminal domain, S328A) (domain or fragment)
chain: not shown
With B2, the binding result in experiment [2] is given as “binds”.
